# In all, about 110,000 compounds were measured (“z-score”: median about -0.1, highest 2% from about 2 on). Some of the results follow. Calls of active or inactive are those of the source.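 How the source made its calls: active means z-score in the third read window above 3 or below -3; inactive means the rest.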
# Biological target: Metabotropic glutamate receptor 8 (Rattus norvegicus) (UniProt P70579)
# Experiment: mGluR8 Gi/Go-coupled signaling modulation – cell-based, rat, thallium flux, HTS, primary screen (AID 488969)
# Details: HEK293 rat mGluR8, GIRK (G protein-gated inwardly rectifying potassium channel) thallium flux, FluoZin2; at 10 µM; stronger effect = higher value; submaximal glutamate (EC20) added with thallium
# UniProt P70579, sequence (P70579 whole entry, looked up): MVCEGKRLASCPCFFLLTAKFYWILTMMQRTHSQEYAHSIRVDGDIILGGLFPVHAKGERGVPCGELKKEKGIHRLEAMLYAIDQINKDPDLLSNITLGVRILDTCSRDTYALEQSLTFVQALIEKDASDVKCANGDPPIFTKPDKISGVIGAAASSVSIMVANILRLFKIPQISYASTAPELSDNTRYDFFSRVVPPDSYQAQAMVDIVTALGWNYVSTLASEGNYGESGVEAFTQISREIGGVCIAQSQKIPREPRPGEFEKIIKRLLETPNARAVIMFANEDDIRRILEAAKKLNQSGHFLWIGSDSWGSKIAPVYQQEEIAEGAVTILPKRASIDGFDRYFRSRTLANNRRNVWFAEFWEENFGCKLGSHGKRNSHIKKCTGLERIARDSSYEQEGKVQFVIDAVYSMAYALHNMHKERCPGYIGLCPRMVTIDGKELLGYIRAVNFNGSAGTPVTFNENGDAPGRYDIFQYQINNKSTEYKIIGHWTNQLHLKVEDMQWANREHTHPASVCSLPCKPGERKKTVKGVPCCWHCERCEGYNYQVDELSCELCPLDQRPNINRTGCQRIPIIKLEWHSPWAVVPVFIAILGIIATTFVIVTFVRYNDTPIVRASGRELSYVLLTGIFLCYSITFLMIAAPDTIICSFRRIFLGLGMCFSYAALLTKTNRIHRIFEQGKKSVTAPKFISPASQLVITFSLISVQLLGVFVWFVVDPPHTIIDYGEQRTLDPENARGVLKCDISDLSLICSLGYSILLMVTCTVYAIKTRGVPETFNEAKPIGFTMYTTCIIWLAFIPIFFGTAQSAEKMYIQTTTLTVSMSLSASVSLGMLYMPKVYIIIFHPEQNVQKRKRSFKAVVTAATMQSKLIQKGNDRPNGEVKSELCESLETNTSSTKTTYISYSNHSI
row,SMILES,z-score
1,CN(C)S(=O)(=O)c1cccc(C(=O)Nc2ccccc2[N+](=O)[O-])c1,-0.148
2,COc1ccc(-c2nnc(SCc3cccc(C)c3)n2N)cc1,-0.0565
3,CC(C)CC(=O)NN(C)c1nc(-c2ccccc2)nnc1C(F)(F)F,0.0396
4,O=C(O)/C=C/C(=O)NNC(=O)c1ccccc1Br,-0.0897
5,COc1ccccc1NC(=O)CSc1nnc(Cc2ccccc2)o1,-0.0662
6,Cc1ccc(S(=O)(=O)N(C)C)cc1NC(=O)/C=C/c1cccs1,-0.153
7,CC(Sc1sc(=S)sc1SC(C)C(=O)O)C(=O)O (stereo not given),-0.203
8,CSc1n[nH]c(NCc2ccc(C)cc2)n1,0.112
9,Cn1c(N)c(C(=O)COC(=O)C2(c3ccc(Cl)cc3)CCCC2)c(=O)n(C)c1=O,-2.63
10,CCOC(=O)C1=C(C)Nc2sc(C(=O)c3ccc(F)cc3)c(N)c2C1c1ccc(C(=O)OC)cc1 (stereo not given),-0.111
11,CCOC(=O)C1CCN(C(=O)c2ccccc2N(C)S(=O)(=O)c2ccccc2)CC1,-0.309
12,Cc1nn(Cc2ccccc2Cl)c(C)c1C(=O)NCCN1C(=O)S/C(=C\c2ccccc2)C1=O,-0.335
13,O=C(N/N=C/c1ccco1)c1ccc(N2CCCC2=O)cc1,-0.293
14,COC(=O)c1sc(N)c(C(=O)OC)c1COC(=O)C1CC(=O)N(Cc2ccco2)C1 (stereo not given),0.0251
15,CCCCOC(=O)CCn1[nH]c(=O)c2ccccc2c1=O,-0.399
16,Cc1occc1C(=O)NN=C1C2CC3CC(C2)CC1C3,0.478
17,O=C(Nc1nnc(CSCc2ccc(F)cc2)s1)c1ccc([N+](=O)[O-])cc1,2.51
18,CC1(C(=O)O)Cc2ccccc2C(=O)O1 (stereo not given),-0.247
19,CCSc1nc(-c2ccc(OC)cc2)cc(-c2ccc(OC)cc2)c1C#N,0.0973
20,CN(C)[C@H]1N(C(=O)c2ccc(Br)cc2)N=C2c3ccccc3S(=O)(=O)N21,-0.127
21,Cc1cc(C)nc(SCc2n[nH]c(=S)n2C)n1,-0.361
22,COC(=O)c1sc(NC(=S)NC(=O)c2cccc(C)c2)nc1C,active: 4.51
23,CCN(CC)S(=O)(=O)c1ccc(NS(=O)(=O)c2cccc(C)c2)cc1,0.708
24,CC(=O)N(C(C)=O)c1cccc2c(N(C(C)=O)C(C)=O)cccc12,0.373
25,CC(C(=O)NC1=NCCS1)N1C(=O)C2CC=CCC2C1=O (stereo not given),-1.7
26,COc1ccc(C)cc1S(=O)(=O)NCCC1=CCCCC1,-0.147
27,CCc1nnc(N/N=C/c2c(Cl)cccc2Cl)n1N,0.00606
28,Cn1c(CNC(=O)c2ccc(Cl)cc2)nnc1SCC(=O)Nc1sc2c(c1C#N)CCCC2,0.356
29,COc1ccccc1/C=C/C=N/N1CCN(Cc2cccc3ccccc23)CC1,-0.494
30,CCCCc1c(C)nc2ccc(Br)cc2c1SCCC#N,-0.487
